Data from publication PMC10076317, “Extended DNA threading through a dual-engine motor module of the activating signal co-integrator 1 complex” (Nature Communications, 2023).
Results are given in words; binding and its absence hold for the method and conditions named. For some assays here: Binding seen in cells or lysates may run through a third protein. Some results given as binding are weak or reduced against the parent protein; the word gives no strength. For some assays here: Sequences can lack the tags named with a protein.

The chains behind the UniProt entries cited, without tags or fusion partners. Where a name states a change or a piece, a line headed by the entry shows the natural chain unless it says otherwise. Residues count along the entry.
UniProt Q8N3C0: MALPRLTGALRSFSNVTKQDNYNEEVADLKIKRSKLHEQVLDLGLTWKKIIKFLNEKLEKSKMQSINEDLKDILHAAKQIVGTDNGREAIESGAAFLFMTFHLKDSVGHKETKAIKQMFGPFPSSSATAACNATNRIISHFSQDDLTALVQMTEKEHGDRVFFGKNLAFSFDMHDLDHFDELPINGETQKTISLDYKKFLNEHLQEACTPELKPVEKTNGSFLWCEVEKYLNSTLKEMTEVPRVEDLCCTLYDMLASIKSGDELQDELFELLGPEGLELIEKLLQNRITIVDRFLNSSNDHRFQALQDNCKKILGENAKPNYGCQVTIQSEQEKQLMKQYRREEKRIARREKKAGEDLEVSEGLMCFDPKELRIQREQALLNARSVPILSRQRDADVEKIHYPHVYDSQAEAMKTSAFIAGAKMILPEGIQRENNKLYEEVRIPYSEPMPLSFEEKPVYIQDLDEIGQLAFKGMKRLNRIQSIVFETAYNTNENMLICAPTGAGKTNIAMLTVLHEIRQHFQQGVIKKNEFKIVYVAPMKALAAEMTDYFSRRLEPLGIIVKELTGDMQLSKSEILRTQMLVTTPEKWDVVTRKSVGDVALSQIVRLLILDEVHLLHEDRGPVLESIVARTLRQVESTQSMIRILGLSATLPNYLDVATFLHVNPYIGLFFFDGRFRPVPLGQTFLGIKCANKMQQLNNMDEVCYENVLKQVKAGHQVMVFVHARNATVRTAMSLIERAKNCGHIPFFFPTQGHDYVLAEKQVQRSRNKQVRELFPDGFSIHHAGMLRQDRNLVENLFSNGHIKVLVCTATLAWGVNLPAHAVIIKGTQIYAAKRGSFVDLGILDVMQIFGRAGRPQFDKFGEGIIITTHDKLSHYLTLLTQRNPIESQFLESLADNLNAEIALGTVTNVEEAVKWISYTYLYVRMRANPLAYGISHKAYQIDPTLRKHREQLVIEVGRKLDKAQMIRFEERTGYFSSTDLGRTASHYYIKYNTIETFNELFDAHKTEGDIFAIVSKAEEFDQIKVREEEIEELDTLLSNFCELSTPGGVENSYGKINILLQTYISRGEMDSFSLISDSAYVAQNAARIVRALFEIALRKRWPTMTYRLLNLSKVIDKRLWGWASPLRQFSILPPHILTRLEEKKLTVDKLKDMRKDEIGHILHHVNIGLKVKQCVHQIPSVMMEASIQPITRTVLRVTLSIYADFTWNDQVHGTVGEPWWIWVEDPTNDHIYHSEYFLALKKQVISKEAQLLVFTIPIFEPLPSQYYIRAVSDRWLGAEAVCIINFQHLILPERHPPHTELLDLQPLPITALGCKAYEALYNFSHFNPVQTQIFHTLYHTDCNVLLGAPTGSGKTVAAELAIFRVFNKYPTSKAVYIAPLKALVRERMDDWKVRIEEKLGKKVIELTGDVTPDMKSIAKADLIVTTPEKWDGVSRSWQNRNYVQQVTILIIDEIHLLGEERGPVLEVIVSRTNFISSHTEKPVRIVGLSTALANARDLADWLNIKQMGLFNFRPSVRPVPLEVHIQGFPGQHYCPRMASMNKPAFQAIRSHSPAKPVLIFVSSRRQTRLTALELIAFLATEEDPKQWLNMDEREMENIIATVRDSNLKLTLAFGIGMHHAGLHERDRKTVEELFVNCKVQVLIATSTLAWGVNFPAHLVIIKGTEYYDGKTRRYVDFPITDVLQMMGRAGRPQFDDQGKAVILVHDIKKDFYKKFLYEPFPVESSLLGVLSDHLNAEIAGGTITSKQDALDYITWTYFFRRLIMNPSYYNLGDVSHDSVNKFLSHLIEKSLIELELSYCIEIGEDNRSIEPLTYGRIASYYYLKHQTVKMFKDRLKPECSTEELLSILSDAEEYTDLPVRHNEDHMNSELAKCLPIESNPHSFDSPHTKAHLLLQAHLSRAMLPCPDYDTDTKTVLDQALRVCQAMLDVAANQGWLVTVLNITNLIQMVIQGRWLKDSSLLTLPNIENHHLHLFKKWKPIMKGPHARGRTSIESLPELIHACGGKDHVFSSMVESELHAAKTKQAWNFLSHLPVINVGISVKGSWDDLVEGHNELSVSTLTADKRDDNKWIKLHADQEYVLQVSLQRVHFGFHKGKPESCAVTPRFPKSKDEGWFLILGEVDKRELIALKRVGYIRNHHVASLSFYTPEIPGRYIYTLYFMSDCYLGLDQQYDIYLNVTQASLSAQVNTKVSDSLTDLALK
ASCC3 helicase region (ASCC3^HR, residues 401-2202): residues 401-2202 of Q8N3C0

T1: C-terminally Flag-tagged TRIP4^Δ1-276 (human) (UniProt Q15650)
T1 sequence: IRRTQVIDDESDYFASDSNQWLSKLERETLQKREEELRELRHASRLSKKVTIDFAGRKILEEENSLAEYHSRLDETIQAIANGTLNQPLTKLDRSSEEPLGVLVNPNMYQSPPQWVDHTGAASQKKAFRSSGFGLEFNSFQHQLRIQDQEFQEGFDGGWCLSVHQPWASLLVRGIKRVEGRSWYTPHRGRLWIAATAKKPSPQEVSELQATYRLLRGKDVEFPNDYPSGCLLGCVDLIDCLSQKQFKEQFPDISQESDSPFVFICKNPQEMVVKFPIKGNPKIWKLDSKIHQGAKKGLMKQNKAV

T2: N-terminally Flag-tagged TRIP4^Δ1-276 (human) (UniProt Q15650)
T2 sequence: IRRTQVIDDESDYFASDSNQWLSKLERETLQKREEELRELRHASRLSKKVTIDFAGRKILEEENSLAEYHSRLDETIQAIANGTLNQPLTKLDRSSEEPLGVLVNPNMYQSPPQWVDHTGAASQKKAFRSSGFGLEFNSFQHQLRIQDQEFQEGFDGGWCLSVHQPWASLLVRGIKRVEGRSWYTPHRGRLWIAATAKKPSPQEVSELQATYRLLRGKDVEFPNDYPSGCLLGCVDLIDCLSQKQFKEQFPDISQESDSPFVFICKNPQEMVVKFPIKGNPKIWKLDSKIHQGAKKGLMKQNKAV

T3: C-terminally Flag-tagged TRIP4^Δ403-581 (human) (UniProt Q15650)
T3 sequence: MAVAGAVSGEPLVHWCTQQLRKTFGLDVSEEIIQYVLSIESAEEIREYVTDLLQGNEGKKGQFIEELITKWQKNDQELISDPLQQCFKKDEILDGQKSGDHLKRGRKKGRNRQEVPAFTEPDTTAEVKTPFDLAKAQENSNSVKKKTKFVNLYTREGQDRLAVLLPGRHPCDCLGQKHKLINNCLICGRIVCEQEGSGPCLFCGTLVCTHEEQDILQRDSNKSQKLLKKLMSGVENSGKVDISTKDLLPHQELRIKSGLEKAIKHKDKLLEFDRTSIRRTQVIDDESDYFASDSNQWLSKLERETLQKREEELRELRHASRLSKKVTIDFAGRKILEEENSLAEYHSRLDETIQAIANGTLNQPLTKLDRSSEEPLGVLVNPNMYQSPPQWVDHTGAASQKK

T4: N-terminally Flag-tagged full-length TRIP4 (human) (UniProt Q15650)
T4 sequence: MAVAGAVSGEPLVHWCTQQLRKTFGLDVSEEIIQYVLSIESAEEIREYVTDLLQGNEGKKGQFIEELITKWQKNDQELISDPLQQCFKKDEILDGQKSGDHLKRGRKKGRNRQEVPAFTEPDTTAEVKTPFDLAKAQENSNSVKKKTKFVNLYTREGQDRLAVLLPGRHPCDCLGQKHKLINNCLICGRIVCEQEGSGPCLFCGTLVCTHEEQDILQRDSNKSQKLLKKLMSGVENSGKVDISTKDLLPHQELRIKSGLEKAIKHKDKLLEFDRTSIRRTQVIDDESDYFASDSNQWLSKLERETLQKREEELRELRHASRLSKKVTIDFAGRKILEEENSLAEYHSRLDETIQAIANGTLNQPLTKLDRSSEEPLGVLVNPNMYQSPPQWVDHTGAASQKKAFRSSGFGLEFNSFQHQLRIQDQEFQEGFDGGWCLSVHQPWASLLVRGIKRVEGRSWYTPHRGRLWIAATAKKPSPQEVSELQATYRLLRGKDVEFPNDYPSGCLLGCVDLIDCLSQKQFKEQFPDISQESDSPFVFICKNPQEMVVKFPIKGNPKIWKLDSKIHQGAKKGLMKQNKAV

T5: C-terminally Flag-tagged full-length TRIP4 (human) (UniProt Q15650)
T5 sequence: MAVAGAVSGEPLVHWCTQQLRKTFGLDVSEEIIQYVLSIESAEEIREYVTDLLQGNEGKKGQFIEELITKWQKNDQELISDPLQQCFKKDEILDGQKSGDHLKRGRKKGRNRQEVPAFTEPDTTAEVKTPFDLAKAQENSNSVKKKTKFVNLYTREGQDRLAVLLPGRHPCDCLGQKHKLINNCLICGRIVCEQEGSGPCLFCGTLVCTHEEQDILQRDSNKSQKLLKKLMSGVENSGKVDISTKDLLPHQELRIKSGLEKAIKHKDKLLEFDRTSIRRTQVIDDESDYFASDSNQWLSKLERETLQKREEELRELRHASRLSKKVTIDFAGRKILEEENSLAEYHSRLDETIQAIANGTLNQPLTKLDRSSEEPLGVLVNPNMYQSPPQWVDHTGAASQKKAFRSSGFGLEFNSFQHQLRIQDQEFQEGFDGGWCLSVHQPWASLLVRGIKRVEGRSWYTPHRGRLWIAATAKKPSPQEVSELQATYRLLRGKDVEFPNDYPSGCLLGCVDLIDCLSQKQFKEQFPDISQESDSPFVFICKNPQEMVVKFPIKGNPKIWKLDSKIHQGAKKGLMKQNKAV

T6: N-terminally Flag-tagged TRIP4^Δ403-581 (human) (UniProt Q15650)
T6 sequence: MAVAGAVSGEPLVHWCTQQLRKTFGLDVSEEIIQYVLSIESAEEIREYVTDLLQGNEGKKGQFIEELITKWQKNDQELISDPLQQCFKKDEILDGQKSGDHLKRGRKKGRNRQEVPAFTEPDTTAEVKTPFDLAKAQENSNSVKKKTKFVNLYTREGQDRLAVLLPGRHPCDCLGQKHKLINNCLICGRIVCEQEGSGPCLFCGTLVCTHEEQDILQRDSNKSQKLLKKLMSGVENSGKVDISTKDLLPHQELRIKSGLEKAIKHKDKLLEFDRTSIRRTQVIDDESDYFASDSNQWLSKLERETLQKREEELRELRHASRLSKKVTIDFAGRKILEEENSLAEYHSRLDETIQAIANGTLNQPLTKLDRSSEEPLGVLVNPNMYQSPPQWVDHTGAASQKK

T7: N-terminally HA-tagged wild-type TRIP4 (human) (UniProt Q15650)
T7 sequence: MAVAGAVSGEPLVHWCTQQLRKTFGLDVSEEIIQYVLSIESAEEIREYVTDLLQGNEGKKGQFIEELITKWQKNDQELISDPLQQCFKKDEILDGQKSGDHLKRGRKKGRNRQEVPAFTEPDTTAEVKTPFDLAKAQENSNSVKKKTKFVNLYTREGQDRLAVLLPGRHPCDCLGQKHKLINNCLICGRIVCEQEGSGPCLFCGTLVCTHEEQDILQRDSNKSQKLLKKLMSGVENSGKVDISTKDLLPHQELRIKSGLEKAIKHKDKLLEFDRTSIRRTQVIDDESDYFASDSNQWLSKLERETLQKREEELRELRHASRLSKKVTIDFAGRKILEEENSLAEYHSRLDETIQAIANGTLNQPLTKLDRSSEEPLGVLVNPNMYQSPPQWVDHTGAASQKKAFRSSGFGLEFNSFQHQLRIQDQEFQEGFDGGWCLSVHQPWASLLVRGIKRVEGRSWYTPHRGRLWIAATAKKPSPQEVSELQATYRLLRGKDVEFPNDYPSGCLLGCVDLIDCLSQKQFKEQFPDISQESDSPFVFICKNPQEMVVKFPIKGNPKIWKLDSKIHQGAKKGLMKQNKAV

T8: N-terminally HA-tagged TRIP4^Δ168-219 (human) (UniProt Q15650)
T8 sequence: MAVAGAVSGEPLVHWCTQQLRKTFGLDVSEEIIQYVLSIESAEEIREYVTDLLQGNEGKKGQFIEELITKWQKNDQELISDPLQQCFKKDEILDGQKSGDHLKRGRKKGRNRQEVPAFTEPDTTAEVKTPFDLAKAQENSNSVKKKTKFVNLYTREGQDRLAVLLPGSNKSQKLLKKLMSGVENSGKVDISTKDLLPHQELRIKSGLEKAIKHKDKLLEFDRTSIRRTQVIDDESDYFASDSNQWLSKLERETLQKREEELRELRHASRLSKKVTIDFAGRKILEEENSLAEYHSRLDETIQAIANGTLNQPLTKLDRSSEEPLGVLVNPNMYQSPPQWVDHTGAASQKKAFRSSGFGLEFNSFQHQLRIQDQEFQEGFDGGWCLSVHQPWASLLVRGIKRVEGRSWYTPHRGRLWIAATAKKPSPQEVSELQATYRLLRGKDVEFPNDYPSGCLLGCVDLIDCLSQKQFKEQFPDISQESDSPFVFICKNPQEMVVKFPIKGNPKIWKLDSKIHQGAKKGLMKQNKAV

T9: N-terminally HA-tagged TRIP4^C171A-C184A (human) (UniProt Q15650)
T9 sequence: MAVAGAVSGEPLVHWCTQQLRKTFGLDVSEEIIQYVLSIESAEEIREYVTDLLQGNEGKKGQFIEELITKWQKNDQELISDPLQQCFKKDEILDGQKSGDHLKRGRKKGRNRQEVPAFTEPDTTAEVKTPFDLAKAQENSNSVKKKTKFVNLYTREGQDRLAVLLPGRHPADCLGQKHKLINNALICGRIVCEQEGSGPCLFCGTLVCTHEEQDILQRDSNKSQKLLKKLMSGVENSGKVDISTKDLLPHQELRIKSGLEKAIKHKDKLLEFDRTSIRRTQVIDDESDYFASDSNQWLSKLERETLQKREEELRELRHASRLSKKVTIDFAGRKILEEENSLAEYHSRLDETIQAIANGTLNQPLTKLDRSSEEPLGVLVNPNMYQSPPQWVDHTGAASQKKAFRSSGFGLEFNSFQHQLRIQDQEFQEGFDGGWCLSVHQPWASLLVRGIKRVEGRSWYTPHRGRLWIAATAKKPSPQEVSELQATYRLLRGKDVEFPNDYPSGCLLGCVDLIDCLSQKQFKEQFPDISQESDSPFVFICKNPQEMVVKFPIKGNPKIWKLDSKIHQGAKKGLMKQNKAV

T10: TRIP4 (activating signal co-integrator 1/thyroid receptor-interacting protein 4), full length, produced in E. coli (human) (UniProt Q15650)
T10 sequence: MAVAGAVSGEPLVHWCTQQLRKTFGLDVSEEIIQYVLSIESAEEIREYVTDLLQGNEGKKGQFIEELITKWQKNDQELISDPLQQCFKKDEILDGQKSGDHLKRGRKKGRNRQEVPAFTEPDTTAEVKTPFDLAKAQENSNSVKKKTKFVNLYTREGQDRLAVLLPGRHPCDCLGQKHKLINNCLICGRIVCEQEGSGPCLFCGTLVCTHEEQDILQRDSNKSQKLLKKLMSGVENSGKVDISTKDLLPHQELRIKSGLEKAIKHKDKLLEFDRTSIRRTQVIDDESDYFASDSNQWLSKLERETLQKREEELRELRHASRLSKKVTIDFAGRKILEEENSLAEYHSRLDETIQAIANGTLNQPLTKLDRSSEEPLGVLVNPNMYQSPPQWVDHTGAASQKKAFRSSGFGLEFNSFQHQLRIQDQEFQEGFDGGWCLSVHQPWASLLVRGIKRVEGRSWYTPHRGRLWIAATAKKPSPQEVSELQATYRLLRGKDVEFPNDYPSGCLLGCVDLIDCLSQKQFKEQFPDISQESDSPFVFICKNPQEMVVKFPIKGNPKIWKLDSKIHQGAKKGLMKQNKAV


Assays:
[1] = molecular target: T1, C-terminally Flag-tagged TRIP4^Δ1-276 (human); assay: co-IP; Flag/His-tagged TRIP4 variants precipitated from cell lysates with α-Flag-M2 magnetic beads (50 mM Tris-HCl pH 7.4, 150 mM NaCl, 0.5 mM EDTA, 0.1% Triton-X-100, 10% glycerol), eluted with 3xFlag peptide; western blot for ASCC1, ASCC2, ASCC3
[2] = molecular target: T2, N-terminally Flag-tagged TRIP4^Δ1-276 (human); assay: as above
[3] = molecular target: T3, C-terminally Flag-tagged TRIP4^Δ403-581 (human); assay: as above
[4] = molecular target: T4, N-terminally Flag-tagged full-length TRIP4 (human); assay: as above
[5] = molecular target: T5, C-terminally Flag-tagged full-length TRIP4 (human); assay: as above
[6] = molecular target: T6, N-terminally Flag-tagged TRIP4^Δ403-581 (human); assay: as above
[7] = molecular target: T7, N-terminally HA-tagged wild-type TRIP4 (human); assay: co-IP; HA-tagged TRIP4 variants precipitated from transfected 293T lysates with α-HA beads; lysis at 300 mM KCl, binding and washes at 150 mM KCl, 4 °C; western blot for endogenous ASCC3
[8] = molecular target: T8, N-terminally HA-tagged TRIP4^Δ168-219 (human); assay: as above
[9] = molecular target: T9, N-terminally HA-tagged TRIP4^C171A-C184A (human); assay: as above
[10] = molecular target: ASCC3 helicase region (ASCC3^HR, residues 401-2202) (human) (UniProt Q8N3C0); assay: condition: only with TRIP4 pre-bound (120 pmol pre-formed ASCC3^HR-TRIP4 complex, 360 pmol ALKBH3); SEC; analytical SEC, Superdex 200 3.2/300; 120 pmol pre-formed ASCC3^HR-TRIP4 complex mixed with 360 pmol ALKBH3 in 100 µl, 30 min on ice; fractions by SDS-PAGE, Coomassie; both purified
[11] = molecular target: T10, TRIP4 (activating signal co-integrator 1/thyroid receptor-interacting protein 4), full length, produced in E. coli (human); assay: SEC; analytical SEC for competitive binding, Superdex 200 3.2/300; 120 pmol ASCC3^HR with 360 pmol TRIP4 and/or ALKBH3 in 100 µl, 30 min on ice; fractions by SDS-PAGE, Coomassie; both purified

binding [1]	binding [2]	binding [3]	binding [4]	binding [5]	binding [6]	binding [7]	binding [8]	binding [9]	binding [10]	Molecule	binding [11]
no binding	no binding	binds	binds	binds	binds	binds	no binding	no binding		ASCC3 (activating signal co-integrator 1 complex subunit 3), endogenous (from UniProt Q8N3C0 1-2202)	
									no binding	ALKBH3 (alpha-ketoglutarate/iron-dependent dioxygenase, DNA/RNA dealkylase), full length (enzyme, human, UniProt Q96Q83 1-286, looked up, ALKBH3, human, full length, amplified from a cDNA library of human HeLa cells, pETM-11; source: E. coli C2566, purified (Ni-NTA, TEV, heparin, SEC); not shown: His6, N-terminal, cleaved) MEEKRRRARVQGAWAAPVKSQAIAQPATTAKSHLHQKPGQTWKNKEHHLSDREFVFKEPQQVVRRAPEPRVIDREGVYEISLSPTGVSRVCLYPGFVDVKEADWILEQLCQDVPWKQRTGIREDITYQQPRLTAWYGELPYTYSRITMEPNPHWHPVLRTLKNRIEENTGHTFNSLLCNLYRNEKDSVDWHSDDEPSLGRCPIIASLSFGATRTFEMRKKPPPEENGDYTYVERVKIPLDHGTLLIMEGATQADWQHRVPKEYHSREPRVNLTFRTVYPDPRGAPW	no binding (tested: 360 pmol each in 100 µl)
